About 14,000 (4.5%) of roughly 310,000 compounds showed an effect of 50% or more. Effects have a minus sign here. The list shows a part of the results.
The molecules below were run against human ether-à-go-go-related gene (hERG) potassium channel (human, UniProt Q12809) (assay: primary screen, population patch clamp on CHO cells stably expressing hERG).
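Note: peak tail current of the secondary pulse compared with the same well before compound.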

Chain of human ether-à-go-go-related gene (hERG) potassium channel (Q12809 whole entry, looked up): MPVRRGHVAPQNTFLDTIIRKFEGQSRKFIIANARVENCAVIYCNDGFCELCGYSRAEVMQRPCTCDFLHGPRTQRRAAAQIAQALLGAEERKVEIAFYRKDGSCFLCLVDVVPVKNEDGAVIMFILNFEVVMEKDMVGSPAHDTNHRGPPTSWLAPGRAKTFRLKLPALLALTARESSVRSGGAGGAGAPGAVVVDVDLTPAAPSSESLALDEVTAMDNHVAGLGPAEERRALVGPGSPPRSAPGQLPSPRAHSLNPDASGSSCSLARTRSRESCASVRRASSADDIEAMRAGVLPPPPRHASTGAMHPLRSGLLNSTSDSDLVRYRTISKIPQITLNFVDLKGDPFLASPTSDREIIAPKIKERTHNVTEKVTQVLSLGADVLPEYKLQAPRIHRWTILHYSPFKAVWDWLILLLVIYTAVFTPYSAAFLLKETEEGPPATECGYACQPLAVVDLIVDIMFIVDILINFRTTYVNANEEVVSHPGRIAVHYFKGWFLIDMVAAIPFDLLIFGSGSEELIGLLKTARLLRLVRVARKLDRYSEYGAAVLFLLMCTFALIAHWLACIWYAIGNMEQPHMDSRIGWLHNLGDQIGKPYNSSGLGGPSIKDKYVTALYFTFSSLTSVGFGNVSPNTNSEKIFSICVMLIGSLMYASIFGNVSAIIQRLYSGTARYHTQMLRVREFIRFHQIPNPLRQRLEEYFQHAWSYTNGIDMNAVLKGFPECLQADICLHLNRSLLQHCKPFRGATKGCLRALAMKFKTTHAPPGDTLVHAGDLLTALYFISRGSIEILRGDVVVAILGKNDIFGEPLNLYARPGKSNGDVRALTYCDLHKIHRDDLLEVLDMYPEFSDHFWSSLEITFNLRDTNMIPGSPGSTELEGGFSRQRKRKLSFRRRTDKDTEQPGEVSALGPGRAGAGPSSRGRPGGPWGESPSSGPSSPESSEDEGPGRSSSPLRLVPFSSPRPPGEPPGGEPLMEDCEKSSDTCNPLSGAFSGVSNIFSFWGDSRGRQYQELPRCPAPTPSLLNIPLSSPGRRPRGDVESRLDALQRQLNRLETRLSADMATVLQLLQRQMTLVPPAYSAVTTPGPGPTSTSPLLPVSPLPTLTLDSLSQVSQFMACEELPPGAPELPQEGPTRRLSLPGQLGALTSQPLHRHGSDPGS

| SMILES | hERG current change (%, negative = inhibition) at 10uM [%] |
| --- | --- |
| COCCCn1c(=NC(=O)c2ccccc2)c(C#N)cc2c(=O)n3cccc(C)c3nc21 | -71.5 |
| COC(=O)Nc1ncc(CN2CCC(c3ccccc3)CC2)s1 | -29.7 |
| COCCNC(=S)N1C2CCC1CC(NC(=O)NC13CC4CC(CC(C4)C1)C3)C2 (stereo not drawn) | -1.35 |
| CC(=O)c1ccc(S(=O)(=O)N(CCCO)Cc2cc3cc4c(cc3[nH]c2=O)OCCO4)cc1 | 13.3 |
| O=C(NNC(=O)c1sccc1-n1cccc1)Nc1ccc(F)cc1 | 8.73 |
| CCCCN(C)CCC(=O)Nc1ccc2c(c1)CCC2.Cl | -7.46 |
| CCCc1c(O)nc(SCC(=O)NCc2ccco2)[nH]c1=O | 27 |
| CCNC(=S)NNC(=O)Cn1nc(C)cc1C | -0.819 |
| O=C1CN(c2ccccc2)C(=S)N1c1ccccc1.[Na+] | 4.68 |
| COc1ccc2ccccc2c1C1CC(=O)N2CN(C3CCCCC3)CSC2=C1C#N (stereo not drawn) | 7.95 |
| CC(Sc1nnc(-c2ccc(C(C)(C)C)cc2)n1C)C(N)=O (stereo not drawn) | -0.259 |
| Cc1ccccc1C(=O)NC(=S)N(CCO)Cc1ccccc1 | 11.1 |
| O=C(/C=C/c1cccs1)N1CCC2(CC1)Oc1ccc(Cl)cc1C(=O)C21CC(c2ccc(Cl)cc2)=NO1 (stereo not drawn) | 12.2 |
| NNC(=O)c1cc(C2CC2)nc2ccc(Br)cc12 | 13.3 |
| COc1cc(-c2nc3n(n2)C(c2ccncc2)C2=C(CCCC2=O)N3)cc(OC)c1OC (stereo not drawn) | 45.3 |
| CCNC(=O)NC(=O)C(C)OC(=O)CNS(=O)(=O)c1c(Cl)cc(Br)cc1Cl (stereo not drawn) | 6.39 |
| Cc1ccc(-c2nn(-c3ccc(F)cc3)cc2C(=O)NCC(c2cccs2)N2CCOCC2)cc1 (stereo not drawn) | -30.5 |
| Cc1ccccc1NS(=O)(=O)c1ccc(C(=O)NCCCN2CCCC2=O)cc1 | 1.22 |
| c1ccc(-c2cnnc(N3CCCCC3)n2)cc1 | -25.4 |
| COCC(C)NCc1cc(Br)ccc1OC.O=C(O)C(=O)O (stereo not drawn) | 8.73 |
| C#Cc1ccc(CN2CCC(C(=O)Nc3ccc(Oc4ccccc4)nc3)CC2)cc1 | -72.3 |
| COC(=O)C1=C(c2ccc(S(C)(=O)=O)cc2)C[C@@H]2CC[C@H]1N2C(=O)NCc1cccc2ccccc12 | -61.6 |
| CCC(C)(C)NC(=O)c1ccc(Br)o1 | 3.34 |
| COc1cc(NS(=O)(=O)c2ccc(NC(=S)NC(=O)c3sc4ccccc4c3Cl)cc2)ncn1 | 16.3 |

From article PMC4336329 (PLoS ONE, 2015)
